Reference: PMC4336329 (PLoS ONE, 2015)
In all, about 310,000 compounds went through this assay and about 14,000 (4.5%) showed an effect of 50% or more. Effects have a minus sign here. Some of the results follow.

Target: human ether-à-go-go-related gene (hERG) potassium channel (human, UniProt Q12809)
Experiment: primary screen, population patch clamp on CHO cells stably expressing hERG
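Also: peak tail current of the secondary pulse compared with the same well before compound.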

human ether-à-go-go-related gene (hERG) potassium channel, sequence (Q12809 whole entry, looked up): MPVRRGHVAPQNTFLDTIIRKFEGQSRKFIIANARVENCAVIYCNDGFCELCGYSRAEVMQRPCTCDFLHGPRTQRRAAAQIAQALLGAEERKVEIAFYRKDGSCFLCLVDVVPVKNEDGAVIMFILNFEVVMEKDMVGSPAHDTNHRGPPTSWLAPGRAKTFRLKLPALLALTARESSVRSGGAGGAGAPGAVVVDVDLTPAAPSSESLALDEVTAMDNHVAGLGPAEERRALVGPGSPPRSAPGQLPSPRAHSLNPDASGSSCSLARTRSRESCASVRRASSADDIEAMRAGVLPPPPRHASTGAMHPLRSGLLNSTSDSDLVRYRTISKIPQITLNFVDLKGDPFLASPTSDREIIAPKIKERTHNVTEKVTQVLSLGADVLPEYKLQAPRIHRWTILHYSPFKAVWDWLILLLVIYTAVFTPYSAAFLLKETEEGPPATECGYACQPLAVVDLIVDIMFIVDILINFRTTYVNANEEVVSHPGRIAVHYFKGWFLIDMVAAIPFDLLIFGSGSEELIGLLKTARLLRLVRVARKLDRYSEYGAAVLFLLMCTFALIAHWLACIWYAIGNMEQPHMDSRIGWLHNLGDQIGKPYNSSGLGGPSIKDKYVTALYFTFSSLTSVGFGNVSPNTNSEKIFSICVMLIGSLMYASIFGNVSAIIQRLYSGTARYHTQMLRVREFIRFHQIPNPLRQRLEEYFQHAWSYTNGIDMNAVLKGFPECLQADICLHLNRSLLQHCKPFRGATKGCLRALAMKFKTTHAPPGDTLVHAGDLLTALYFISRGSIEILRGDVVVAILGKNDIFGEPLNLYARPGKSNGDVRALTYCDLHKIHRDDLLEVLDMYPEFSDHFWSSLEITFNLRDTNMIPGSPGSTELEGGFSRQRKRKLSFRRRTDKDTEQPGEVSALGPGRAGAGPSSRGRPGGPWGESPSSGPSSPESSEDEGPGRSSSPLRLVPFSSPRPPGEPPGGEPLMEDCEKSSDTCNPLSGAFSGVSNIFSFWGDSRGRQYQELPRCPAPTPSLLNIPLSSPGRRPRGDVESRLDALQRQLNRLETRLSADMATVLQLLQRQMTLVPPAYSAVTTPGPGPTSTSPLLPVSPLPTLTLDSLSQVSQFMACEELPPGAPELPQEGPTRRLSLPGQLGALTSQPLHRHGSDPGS

Row | SMILES | hERG current change (%, negative = inhibition) at 10uM [%]
1 | O=S(=O)(Nc1ccc(S(=O)(=O)Nc2ncccn2)cc1)c1ccccc1 | 15.5
2 | N#Cc1cc([N+](=O)[O-])cnc1N(CCO)CCO | -1.1
3 | C=CCN(c1ccccc1C(=O)NCC(=O)OCC)S(=O)(=O)c1ccc(C)cc1 | -3.31
4 | COCCCNC(=S)N1CCN(C(=O)C(=O)Nc2ccc(C(=O)OC)cc2)CC1 | -14.5
5 | CCCN1CCN(CCCNC(=O)C2CCN(c3nnc(-n4cccc4)s3)CC2)CC1 | -14.4
6 | O=Cc1ccc(OCC(=O)Nc2ccccc2C(F)(F)F)cc1 | -7.35
7 | O=C(Nc1cc2c3c(c1)C1CCCC1CN3CC1CCCC21)c1ccc([N+](=O)[O-])cc1 (centres unmarked) | 4.65
8 | Oc1ccccc1CNc1ccc(OC(F)(F)F)cc1 | 6.85
9 | CS(=O)(=O)N(CC(=O)N1CCCC1)c1ccccc1Br | 11.1
10 | CCN(C(=O)CSc1nnc(NCc2ccccc2)s1)C1CCS(=O)(=O)C1 (centres unmarked) | 8.38
11 | CC(C)N(C(=O)C[n+]1ccsc1N)c1ccccc1.[Cl-] | 16.7
12 | Cc1ccc(NC2SC(=O)N(CC(=O)O)C2=O)cc1 (centres unmarked) | 3.97
13 | Cc1cc(Cl)ccc1NC(=S)Nc1cccnc1 | -0.381
14 | O=C(/C=C/c1ccccc1)Oc1coc(CSc2ncccn2)cc1=O | -31.5
15 | Cc1ccccc1CNC(=O)c1ccccc1N | -2.89
16 | O=C(COc1ccc(F)cc1)NCC1CCCO1 (centres unmarked) | -7.21
17 | CCOc1ccc(-c2cc(N)n(S(=O)(=O)c3cccc4nsnc34)n2)cc1 | -0.861
18 | CN1/C(=C/C(=O)c2ccc(Cl)cc2)Sc2cc3c(cc21)OCO3 | 1.29
19 | CCCn1c(N)c(C(=O)CSc2n[nH]c(-c3ccccc3F)n2)c(=O)n(C)c1=O | -9.83
20 | CCN1C(=O)CC(C(=O)O)SC1=Nc1ccc(OC)cc1 (centres unmarked) | -1.5
21 | COc1ccc(CC(=O)NCc2nn(-c3ccccc3)nc2C)cc1OC | 3.42
22 | CCCCc1cc(=O)oc2cc(C)cc(OC(C)C(=O)NCC3CCC(C(=O)O)CC3)c12 (centres unmarked) | 11.3
23 | OC(COC(c1ccccc1)c1ccccc1)CN1CCOCC1 (centres unmarked) | -5.77

Row | SMILES | hERG current change (%, negative = inhibition) at 10uM [%]
24 | CCN1CCN(c2nc3c(C)cccn3c(=O)c2/C=C(\C#N)S(=O)(=O)c2ccc(Cl)cc2)CC1 | -44.9
25 | COc1ccc(C(C(=O)NCCC(C)C)N(CCN2CCOCC2)C(=O)Cn2nnc3ccccc32)c(OC)c1 (centres unmarked) | -24.3
26 | COc1cc(NC(=O)C2=C(N3CCOCC3)/C(=C/c3ccc(Cl)cc3)CC2)cc(OC)c1OC | -6.95
27 | O=C(O)C(Cc1ccccc1)N1Cc2ccccc2C1=O (centres unmarked) | -3.47
28 | O=C(Nc1ccc(OC(F)(F)F)cc1)c1ccc2ccccc2n1 | 13.6
29 | CCCC(=O)C1=C(O)C(C(=O)OC)C(C)(C)CC1=NCCCCCC(=O)O (centres unmarked) | 13.9
30 | CCCC1CC(C)(/C(C)=N\NC(N)=S)OC1=O (centres unmarked) | 12.4
31 | O=C(CNS(=O)(=O)c1ccc(F)cc1)N1CCN(c2ccccc2)CC1 | -11.7
32 | COc1ccccc1/C=C1/C(=N/O)C2CCN1CC2 | 0.383
33 | CCCCn1c(O)c(C(C)=NCc2ccc3c(c2)OCO3)c(=O)[nH]c1=O | -2.46
34 | Cc1cc(NC(=O)/C=C/c2ccc(F)cc2)n(-c2nc3ccccc3[nH]2)n1 | -3.69
35 | CN(C)CCCN(CCCNC(=O)/C=N/O)Cc1ccccc1 | 1.31
36 | O=S(=O)(Nc1ccccc1)c1ccc(-c2csnn2)cc1 | -7.1
37 | CCN(CC)c1ccc(C=NCCc2ccc(S(N)(=O)=O)cc2)cc1 | 9.89
38 | CC(C)(C)CC(=O)NC(=S)Nc1ccccc1C(F)(F)F | -6.6
39 | COC(=O)c1ccccc1NC(=S)N1CCN(c2ccccc2)CC1 | -0.00642
40 | COc1ccc(Cl)cc1Nc1nc(N)c2ccccc2n1.Cl | 20.4
41 | Cc1ccc(C2=NS(=O)(=O)N(C)C(C(=O)Nc3cc(C)n(CC(=O)N4CCCCC4)n3)=C2)cc1 | 10.3
42 | CCCOc1ccc(C2C(=O)N(C3CCCCC3)CC(=O)N2CCCOCC)cc1OC (centres unmarked) | -8.57
43 | CCOC(=O)C1C(C)=CC(=O)CC1c1ccco1 (centres unmarked) | 9.3
44 | CN(C)S(=O)(=O)c1c(Cl)cccc1Cl | 19.7
45 | CN(C)C(=S)Nc1cccc(C(F)(F)F)c1 | 5.67
46 | O=C(O)C1CCCN1C(=O)Nc1ccccc1 (centres unmarked) | 4.38

Row | SMILES | hERG current change (%, negative = inhibition) at 10uM [%]
47 | N#Cc1ccccc1S(=O)(=O)c1ccccc1C(=O)Nc1ccccc1 | 13
48 | Cc1cccc(-n2c(=S)[nH]c3c(oc4ccccc43)c2=O)c1 | 26.6
49 | CC(C)CCC(CCN1CCOCC1)c1ccc2c(c1)OCO2.Cl (centres unmarked) | -72.9
50 | CCN1/C(=C2/SC(=S)N(NC(C)=O)C2=O)Sc2ccccc21 | 23.9
51 | COc1ccc(S(=O)(=O)N2CCN(C(=O)C3CC3)CC2)cc1Br | -36
52 | O=C1CC(c2ccccc2)CC(O)=C1C=NC1CCCCCC1 (centres unmarked) | 6.58
53 | O=C(NC1=NCCS1)c1ccc(Cl)c(S(=O)(=O)N2CCCC2)c1 | -2.24
54 | CCN(CC)S(=O)(=O)c1cc(NC(=O)CN2C(=O)NC3(CCCc4ccccc43)C2=O)ccc1C (centres unmarked) | -1.57
55 | CCN1CCN(C(=S)c2ccc(OCC(=O)NCc3ccccc3)cc2)CC1 | -3.65
56 | O=C(O)C(=O)O.OC(COC1CCCCC1)C[NH+]1CCCCC1 (centres unmarked) | 1.4
57 | O=C(O)c1ccc(NC2=C(n3nnc4ccccc43)C(=O)c3ccccc3C2=O)cc1 | 3.97
58 | CC1CC(C)CN(CCCNC(=O)c2ccc3c(SCC(=O)O)c4c(nc3c2)CCC4)C1 (centres unmarked) | 8.49
59 | CC(C)CC(=O)NN(C)c1nc(-c2ccccc2)nnc1C(F)(F)F | 6.78
60 | O=C(c1ccc(OC2CCN(C(=O)c3cccnc3)CC2)cc1)N1CCCCCC1 | 4.69
61 | COc1ccc(/C=C/C(=O)C2(O)CCCCC2)cc1 | -16.9
62 | O=C(NCCN1CCCCC1)Nc1ccc([N+](=O)[O-])cc1 | -41.4
63 | O=C(O)c1cc(-c2ccc(-c3c(-c4ccc5c(c4)OCO5)noc3-c3ccsc3)cc2)nc2ccccc12 | 2.1
64 | CCC(C)[C@H]1COCCS(=O)(=O)N1Cc1ccccc1 (some centres unmarked) | 5.2
65 | Cc1cccc(C(C(=O)NC2CCCC2)N(Cc2cccnc2)C(=O)c2csnn2)c1 (centres unmarked) | 1.91
66 | COC(=O)c1cc(Cl)c(NC(=O)/C=C/c2ccc(Cl)cc2Cl)cc1OC | -10.9
67 | O=C(NCc1ccccn1)c1ccc(OC2CCN(Cc3ccccc3O)CC2)cc1 | -1.17
68 | COc1ccc(Cl)cc1N(CC(=O)N1CCCC1)S(C)(=O)=O | 8.82
69 | COc1ccc(CCNCc2ccc(SC)cc2)cc1 | -73.2

Row | SMILES | hERG current change (%, negative = inhibition) at 10uM [%]
70 | Cc1onc(-c2ccccc2)c1C(=O)N1CCOC12CCN(c1cccc(F)n1)CC2 | -8.68
71 | C=CCNC(=O)C(C(=O)OCC)C1CCCCC1 (centres unmarked) | -53.3
72 | Cn1c(CN2CCCCC2)nc2cc(NC(=O)c3cccc(Br)c3)ccc21 | -63.3
73 | O=c1[nH]c(=O)c2nc3ccccc3nc2[nH]1 | 3.76
74 | O=C(CCN1C(=O)S/C(=C\c2ccccc2)C1=O)Nc1ccc(S(=O)(=O)Nc2nccs2)cc1 | 7.01
75 | COc1ccc(N2CC(O)=C(c3nc4ccccc4s3)C2=N)c(OC)c1 | -23
76 | COc1ccc(Cl)cc1NC(=O)C(C)N(C)Cc1cccc(Cl)c1Cl (centres unmarked) | -14.5
77 | O=[N+]([O-])c1cccc(CN2CCN(c3ncccn3)CC2)c1 | -1.26
78 | OC1(c2cccs2)CN(c2ccccc2)C2=[N+]1CCCC2.[Br-] (centres unmarked) | 4.63
79 | CC1(CCC(=O)N2CCCC(Nc3ccc(F)cc3)C2)CC1 (centres unmarked) | -2.6
80 | COc1ccc(OCC(=O)Nc2ccc3c(c2)CCC3)cc1 | -19.9
81 | Cc1ccc(Nc2cnn(C34CC5CC(CC(CC(=O)O)(C5)C3)C4)c(=O)c2Cl)c(Cl)c1 | 20.1
82 | S=C(NCCCN1CCOCC1)Nc1ccc(Cl)cc1 | -17.2
83 | CN(CC(=O)Nc1ccc(S(=O)(=O)N(C)C)cc1)Cc1ccc(C(F)(F)F)cc1 | 1.53
84 | CCN(CC(=O)Nc1ccc(NC(C)=O)cc1)C(=O)Cc1coc2cc(C)c(C)cc12 | -16
85 | Cc1cc([N+](=O)[O-])ccc1N=Nc1c(N)[nH]n(-c2ccccc2)c1=O | 14.1
86 | Cc1c(NC(=O)COC(=O)c2ncc(Cl)c(Cl)c2Cl)c(=O)n(-c2ccccc2)n1C | 16
87 | COc1ccc2c(c1)CCC1=C2NC(=S)NC1c1ccc(N(C)C)cc1 (centres unmarked) | 11
88 | CCOc1ccc(OCCCC(=O)O)cc1 | -15
89 | Cc1ccc(OCC(=O)Nc2ccc3c(c2)OCO3)c([N+](=O)[O-])n1 | -7.74
